Among all 220,000 compounds or so, about 5,700 (2.6%) were called active. The shares of active, inactive and inconclusive entries below differ from those in the screen. Calls follow the shape of the dose curve; as a rule, active = well fitted inhibition curve with a large enough effect; inconclusive = small, poorly fitted or top-dose-only effect; inactive = no such curve, though single readings can be large or run the other way. A potency beside an inconclusive call is a rough fit, not a confirmed value.
Molecular target: Lysine-specific demethylase 5B (Homo sapiens) (UniProt Q9UGL1)
Test: Primary screen for KDM5B Histone Demethylases FDH-coupled qHTS; also: nearly all actives have a fitted effect of over 70% in size; as to activity change, negative = inhibition: 0% is about no effect
Details: FDH-coupled NADH fluorescence (FDH is formaldehyde dehydrogenase); activity change, negative = inhibition: at 57.7 µM (top of the series) unless noted
In short: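 qHTS format, multiple compound concentrations. Buffer 50 mM HEPES pH 7.5/0.01% Tween-20; 200 nM KDM5BΔAP final; 10 min compound preincubation; substrate-mix levels 12.5 µM peptide, 25 µM α-KG, 0.25 mM NAD⁺; 30 min RT; ΔRFU.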
Potency is read from the fitted curve at half-maximal effect; tags tell the direction and shape of the fitted curve.

UniProt Q9UGL1, sequence (Q9UGL1 whole entry, looked up): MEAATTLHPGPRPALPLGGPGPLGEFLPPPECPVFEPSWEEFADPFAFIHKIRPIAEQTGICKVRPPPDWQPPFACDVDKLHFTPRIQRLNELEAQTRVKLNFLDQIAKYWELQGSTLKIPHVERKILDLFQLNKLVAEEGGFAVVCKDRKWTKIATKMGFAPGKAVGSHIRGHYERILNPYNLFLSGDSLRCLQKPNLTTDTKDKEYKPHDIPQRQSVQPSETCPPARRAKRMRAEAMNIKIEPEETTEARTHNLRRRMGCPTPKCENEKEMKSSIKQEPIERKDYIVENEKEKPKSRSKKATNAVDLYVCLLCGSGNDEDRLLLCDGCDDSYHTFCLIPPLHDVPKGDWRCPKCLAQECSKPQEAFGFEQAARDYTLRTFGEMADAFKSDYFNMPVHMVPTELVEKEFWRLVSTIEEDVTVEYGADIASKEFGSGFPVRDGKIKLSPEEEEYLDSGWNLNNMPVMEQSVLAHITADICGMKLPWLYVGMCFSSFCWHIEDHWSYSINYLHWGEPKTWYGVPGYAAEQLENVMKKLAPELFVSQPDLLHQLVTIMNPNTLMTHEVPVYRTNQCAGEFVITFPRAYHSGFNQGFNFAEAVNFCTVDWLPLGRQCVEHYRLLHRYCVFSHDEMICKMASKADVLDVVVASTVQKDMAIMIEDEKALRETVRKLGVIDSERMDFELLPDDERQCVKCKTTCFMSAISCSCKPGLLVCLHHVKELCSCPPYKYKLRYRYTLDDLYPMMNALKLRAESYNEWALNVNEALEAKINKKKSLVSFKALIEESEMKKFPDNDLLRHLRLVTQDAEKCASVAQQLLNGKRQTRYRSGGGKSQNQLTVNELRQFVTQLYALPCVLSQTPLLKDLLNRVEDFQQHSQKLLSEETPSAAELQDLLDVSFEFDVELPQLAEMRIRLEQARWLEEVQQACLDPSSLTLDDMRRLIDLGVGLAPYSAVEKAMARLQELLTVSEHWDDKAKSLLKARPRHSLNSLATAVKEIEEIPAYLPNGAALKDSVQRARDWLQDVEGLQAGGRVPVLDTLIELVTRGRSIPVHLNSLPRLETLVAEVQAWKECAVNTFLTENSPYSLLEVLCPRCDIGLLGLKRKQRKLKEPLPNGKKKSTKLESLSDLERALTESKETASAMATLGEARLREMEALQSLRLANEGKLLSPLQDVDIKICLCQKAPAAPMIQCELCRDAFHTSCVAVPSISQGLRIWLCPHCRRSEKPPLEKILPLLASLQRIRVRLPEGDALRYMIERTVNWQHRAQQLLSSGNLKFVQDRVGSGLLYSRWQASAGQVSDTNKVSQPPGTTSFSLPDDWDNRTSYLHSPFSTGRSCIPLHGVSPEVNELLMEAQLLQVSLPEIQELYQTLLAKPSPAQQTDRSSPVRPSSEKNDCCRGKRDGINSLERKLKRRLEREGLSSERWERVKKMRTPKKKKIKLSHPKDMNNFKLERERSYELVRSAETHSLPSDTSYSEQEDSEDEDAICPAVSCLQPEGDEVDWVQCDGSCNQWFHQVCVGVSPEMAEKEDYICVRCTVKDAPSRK

Structure (SMILES) | Potency | activity change, negative = inhibition
Cc1nc(N2CCC(C(=O)NCCC3=CCCCC3)CC2)cc(C(F)(F)F)n1 | inactive | –
Cc1ccc(NC(=O)c2ccc(NC(=O)N3CCSc4ncccc43)cc2)c(Cl)c1 | inconclusive: 31.6 µM [inhibitor, partial curve, poor fit] | –
CCc1ccc(NC(=O)CSc2nc3c([nH]c4ccccc43)c(=O)n2-c2ccc(C)cc2)cc1 | inconclusive: 15.8 µM [inhibitor, partial curve, poor fit] | –
O[C@@H]1C[C@@H](c2nc(-c3ccccc3)no2)N(Cc2cc3ccccc3o2)C1 | inconclusive: 35.5 µM [inhibitor, single point] | –
N#Cc1nc(COc2ccc(F)cc2)oc1NCc1ccco1 | inactive | –
COc1cc(OCc2ccccc2)ccc1CN1C[C@@H]2CCN[C@@H]2C1 | inconclusive: 8.91 µM [inhibitor, partial curve, poor fit] | –
COc1cccc(C(=O)NNC(=O)c2ccc3ccccc3c2O)c1 | inconclusive: 20 µM [inhibitor, partial curve, poor fit] | –
Cc1cccc(NC(=O)c2cc3c(N4CCSCC4)nc(C)cn3n2)c1 | active: 31.6 µM | –
O=c1cc(CN2CCN(c3ccccc3)CC2)c2cc(Cl)c(O)cc2o1 | inconclusive: 25.1 µM [inhibitor, partial curve, poor fit] | –
Cc1ccc(C2CC(=O)n3nc(-c4ccc(Cl)cc4)nc3S2)cc1 (configuration not stated) | inactive | –
CC(C)n1cc2cc(C(=O)N3CCCCC3)sc2c1 | inconclusive: 11.2 µM [inhibitor, partial curve] | –
Cc1ccc(-c2cc(C(=O)NCc3ccco3)c3ccccc3n2)s1 | inconclusive: 28.2 µM [inhibitor, partial curve, poor fit] | –
CCOC(=O)c1cc2c(=O)n3ccccc3nc2n(Cc2ccco2)c1=NC(=O)c1ccc(C(C)(C)C)cc1 | inconclusive: 28.2 µM [inhibitor, partial curve, poor fit] | –
COc1cc(-c2nc(CN3CCCC(CN)C3)c(C)o2)cc2c1OCO2 (configuration not stated) | inconclusive: 20 µM [inhibitor, partial curve, poor fit] | –
O=C(Cn1ccn2nc3c(c2c1=O)CCCCC3)Nc1ccc2c(c1)OCCO2 | inconclusive: 39.8 µM [inhibitor, single point] | –
COCCc1noc(-c2ccccc2OC2CN(C(=O)c3ccncc3)C2)n1 | inconclusive: 31.6 µM [inhibitor, single point] | –
CC(NC(=O)CSc1nnc(COc2ccccc2Cl)n1C)c1ccc2ccccc2c1 (configuration not stated) | inactive | –
CN(C)c1cccc(-c2n[nH]c3c2CC(=O)N(CC2CC2)C3)c1 | active: 20 µM | –
COc1cc(NC(=O)NCc2nnnn2-c2ccc(C)cc2)cc(OC)c1OC | inactive | –
Cc1ccc2c(c1)N(CC(=O)Nc1ccccc1C(F)(F)F)C(=O)c1cccnc1O2 | inconclusive: 1.12 µM [inhibitor, full curve, poor fit] | –
CCCCCOc1ccc(C(N)C(=O)OCC)cc1 (configuration not stated) | inactive | –
N#CC1=C(N)Oc2c(c(=O)[nH]c3ccccc23)C1c1ccccc1Cl (configuration not stated) | inconclusive: 17.8 µM [inhibitor, partial curve, poor fit] | –
O=C(/C=C/c1cccc(Cl)c1)c1ccc(OC(F)F)cc1OC(F)F | inconclusive: 25.1 µM [inhibitor, single point] | –
Cc1cc(C)n(CCC(=O)N2CCCC(c3nnnn3C)C2)n1 (configuration not stated) | active: 25.1 µM | –

Structure (SMILES) | Potency | activity change, negative = inhibition
CCc1nc2c(c(-c3ccc(Cl)cc3)n1)CCN(C(=O)c1ccc3c(c1)OCO3)CC2 | inactive | –
CCCCCCn1nc(C(=O)OCC(=O)Nc2ccc(C(N)=O)cc2)c2ccccc2c1=O | inactive | –
CN(C)CCSc1nc(N2CCCCC2)c2c(c1C#N)CCCC2 | inactive | –
O=c1c2c(nc3cc[nH]n13)CN(S(=O)(=O)c1ccc(F)c(Cl)c1)CC2 | inconclusive: 22.4 µM [inhibitor, partial curve, poor fit] | –
O=C(Cc1cccc(F)c1)N1CCC2(CC1)NC(=O)N(c1ccccc1Cl)N2 | inconclusive: 35.5 µM [inhibitor, partial curve, poor fit] | –
CN(CC(=O)Nc1ccccc1Cl)Cc1ncc(-c2ccc(F)cc2)o1 | inactive | –
O=C(c1cnsn1)N1CCc2c(cc(-c3cccc(F)c3)c(=O)n2CCN2CCCCC2)C1 | inconclusive: 39.8 µM [inhibitor, partial curve, poor fit] | –
COc1ccc(CCNC(=O)c2cc3c(=O)n4cccc(C)c4nc3n2C)cc1 | inconclusive: 35.5 µM [inhibitor, single point] | –
CCN(CC)S(=O)(=O)c1ccc2[nH]c(=O)cc(C(=O)N(C)CC3CC3)c2c1 | inactive | –
COc1ccc(-c2cc(C(=O)N3CCCC3)c3ccccc3n2)cc1 | inconclusive: 22.4 µM [inhibitor, partial curve, poor fit] | –
Cc1ccc(CNCC(=O)O)cc1 | inactive | –
CN(C)C[C@@H]1CN(C)C[C@H]1NC(=O)CCCc1ccccc1 | inconclusive: 22.4 µM [inhibitor, partial curve] | –
CC1CCC(NC(=O)CN2C(=O)C(C)(C)c3cc(S(=O)(=O)N4CCC(C)CC4)ccc32)CC1 (configuration not stated) | inactive | –
O=C(COC(=O)c1ccc2ccccc2n1)Nc1cc(F)ccc1F | inactive | –
Cc1oc(-c2ccccc2)nc1CC(=O)NCC1(N2CCOCC2)CCCCC1 | inactive | –
CCNC(=O)CCCN1C(=O)CCn2nc(-c3cccn3C)cc21 | – | inconclusive: -32.4% [inhibitor]
CCCCOc1ccc(S(=O)(=O)c2ccc(OCCCC)cc2)cc1 | inactive | –
CCCC(=O)Nc1ccc2oc(-c3cccc(Cl)c3)nc2c1 | inconclusive: 2 µM [inhibitor, full curve, poor fit] | –
O=C(c1cncc(Br)c1)N1CCCCCC1c1nnc(-c2ccccc2)o1 (configuration not stated) | inactive | –
CCNc1oc(-c2ccc(S(=O)(=O)N(CC)CC)cc2)nc1C#N | inactive | –
CCN(CC)CCN1Cc2c(sc(C)c2C)N(C(=O)c2ccc(OC)cc2)C1 | inactive | –
COc1ccc(NC(=O)NC(C(=O)N2CCc3ccccc32)C(C)C)cc1OC (configuration not stated) | inactive | –
Cc1cccc(C(=O)Nc2c(C)ccc3nsnc23)c1 | inactive | –
CN(C(=O)CSc1nc2ccc(NC(=O)c3cccc(F)c3)cc2s1)c1ccccc1 | inconclusive: 28.2 µM [inhibitor, partial curve, poor fit] | –

Structure (SMILES) | Potency | activity change, negative = inhibition
Cc1cccc(/C=C/C(=O)c2cc3cc(Cl)ccc3oc2=O)c1 | inactive | –
CC(=O)N1CCC2(CC1)Oc1ccc(Br)cc1C1CC(c3cccnc3)=NN12 (configuration not stated) | inconclusive: 39.8 µM [inhibitor, single point] | –
Cn1cccc1C(=O)N1CCCN(S(=O)(=O)c2ccccc2)CCC(=O)NCC1 | inactive | –
Cc1cc(NC(=O)N2Cc3cccn3-c3ccccc32)ccc1Br | inconclusive: 39.8 µM [inhibitor, single point] | –
Cc1ccc(-n2ncc3c(Nc4ccc(Oc5ccccc5)cc4)ncnc32)c(C)c1 | inconclusive: 35.5 µM [inhibitor, partial curve, poor fit] | –
CC(C)n1ncc2c(C(=O)NCc3ccccc3CN(C)C)cc(C3CC3)nc21 | inconclusive: 28.2 µM [inhibitor, partial curve, poor fit] | –
COc1cccc(C(=O)NC2CCN(c3cnn(CC4CC4)c(=O)c3)CC2)c1OC | inactive | –
O=C(Nc1cccn2nc(C3CCC3)nc12)c1cccc(F)c1 | inactive | –
COCCOc1ccc2c(n1)CCN(C(=O)C1(c3ccc(OC)cc3)CC1)C2 | inactive | –
CC(C)OCCSc1nnc(-c2nn(Cc3ccccc3)c(=O)c3ccccc23)o1 | inactive | –
CC(OC(=O)c1ccc(O)cc1)C(=O)C12CC3CC(CC(C3)C1)C2 (configuration not stated) | inactive | –
COc1ccc(-c2ccc3nnc(CNC(=O)c4ccc[nH]4)n3n2)cc1 | inconclusive: 20 µM [inhibitor, partial curve, poor fit] | –
C/C=C/C=C/C(=O)Nc1c(C)cccc1C(C)C | inactive | –
O=C(COC(=O)c1ccc(S(=O)(=O)N2CCCCCC2)cc1)Nc1ccc(Cl)cn1 | inactive | –
COc1ccc(OC)c(C2C(C(=O)Nc3ccc(C)cc3C)=C(C)Nc3c(C(=O)Nc4ccc(F)cc4)cnn32)c1 (configuration not stated) | inconclusive: 14.1 µM [inhibitor, partial curve, poor fit] | –
CCn1c2c(c(=O)n3ncc(C(=O)N4CCN(c5ccccc5)CC4)c13)CN(Cc1ccc(OC)cc1)CC2 | inconclusive: 25.1 µM [inhibitor, partial curve, poor fit] | –
Cc1ccc(-c2cc(C(=O)Nc3cccc(C#N)c3)c3ccccc3n2)o1 | inconclusive: 22.4 µM [inhibitor, partial curve, poor fit] | –
CCOC(=O)CCc1c(C)nc2c(-c3ccccc3)c(C)[nH]n2c1=O | inconclusive: 25.1 µM [inhibitor, partial curve, poor fit] | –
CCn1nc(-c2ccc3c(c2)OCO3)nc1N(C)C | inconclusive: 31.6 µM [inhibitor, partial curve, poor fit] | –
COC(=O)CNC(=O)Cn1ccc2ccc(Cl)cc21 | inactive | –
CCCN1C(=O)c2cc(C(=O)NCc3ccc(C)cc3)nn2CC1(C)C(=O)NC1CCCC1 (configuration not stated) | inactive | –
O=C(CSc1nnc(-c2ccncc2)n1-c1ccccc1)Nc1ccc(F)cc1 | inactive | –
Cc1ccccc1OCCCCCCN1CCNCC1 | inconclusive: 11.2 µM [inhibitor, partial curve, poor fit] | –
Cc1cc(Nc2cccc(C(F)(F)F)c2)nc2ccc(NC(=O)Cc3ccc(Cl)cc3)cc12 | inconclusive: 31.6 µM [inhibitor, partial curve, poor fit] | –

Reference: PubChem BioAssay AID1347165 (National Center for Advancing Translational Sciences (NCATS), 2019)
